# Measurements from ChEMBL document CHEMBL4888484, “Replenishing the malaria drug discovery pipeline: Screening and hit evaluation of the MMV Hit Generation Library 1 (HGL1) against asexual blood stage Plasmodium falciparum ,using a nano luciferase reporter read-out” (2022).
# Screen size: about 150,000 compounds; about 540 (0.36%) showed an effect of 50% or more. Some of the results follow.
# Test system: Plasmodium falciparum
# Assay: Primary screen in NF54 nanoGlo assay, in single point, at 2uM, 72h; a lower Z score goes with more inhibition
# Format: functional, Erythrocyte
# Conditions: timepoint 72 hour
Compound,% Inhibition [%],Z score
CC(C)(NC(=O)c1cccs1)c1nc(CC(N)=O)nn1CCO,-1,0.05
COCC(NC(C)c1ccc(Br)o1)c1ccco1 (stereo not drawn),-6,0.63
CN1CCN(C(C)(C)CNC(=O)c2csc(-c3ccco3)n2)CC1,-1,0.16
CN(CC(c1ccccc1)c1ccccc1)[C@H]1COC[C@@H]1O,-10,1.87
CCn1nc(-n2cnnc2)c(NC(=O)c2ccc(C)cc2)c1C,30,-3.98
O=C(Nc1cccc(-c2noc(C3CCCC3)n2)c1)c1ccsc1,-24,4.1
CCc1nnsc1C(=O)N1c2ccccc2C[C@@H]1C,-8,0.77
CC1(C)[C@H]2CC[C@]1(C)[C@H](OC(=O)CCc1cscn1)C2,-6,0.49
O=C(CCCn1c(=O)[nH]c2ccc(Br)cc2c1=O)N1CCc2ccccc2C1,-17,2.84
Cc1ccc(Cc2cnc(NC(=O)NC[C@H](C)CN3CCN(C)CC3)s2)cc1,2,-0.24
Cc1ccc(NC[C@H]2CCN(Cc3cc(=O)n(C)c(=O)n3C)C2)nc1,11,-2.19
O=C(C[C@@H]1NC(=O)c2ccccc2N=C1O)Nc1ccc(OC(F)(F)F)cc1,-3,0.41
OCc1ccnc(N[C@H]2CCCOC2)n1,-6,1.03
C[C@H]1CN(c2cc(Cl)ccc2Cl)CCN1C(=O)CN1CCC(=O)NC1=O,-8,1.38
CCOc1ccccc1NC(=O)CN(C)C,-5,0.96
CS(=O)(=O)c1ccc(OC[C@H]2C[C@@H](NC(=O)c3cccnc3)[C@H](O)[C@@H]2O)cc1,-8,1.21
Cc1ccc(CNC(=O)[C@H]2CCC[C@H]2NC(=O)c2ccncc2)cc1,-3,0.45
C[C@H](Nc1ccc2c(c1)OCO2)C(=O)N1CCCC1,-8,1.51
COc1cccc(F)c1[C@H](C)NCc1nnc(C2CC2)n1C,12,-1.04
CC[C@](O)(CNC(=O)c1cncnc1C1CC1)c1ccc(Cl)cc1,-1,0.14
O=C(Nc1cnns1)N1CCCN(C(=O)[C@@H]2CCCO2)CC1,-8,1.42
CCOC(=O)c1ncccc1NC(=O)C1C2CCCCC21 (stereo not drawn),-10,1.49
Cn1cc(-c2cnn(-c3ccccn3)c2)cn1,3,-0.41
COc1cc(C(=O)N[C@H]2CC=CC[C@@H]2C(N)=O)ccn1,-14,1.5
